Data taken from the RNAGym collection of RNA variant scans (doi:10.7554/elife.90254).
Read counts are not given, so values of variants with three or more changes are uncertain.

B1: LINE1-full (parent)
chain: UACGUAGGUGGUUUUCCCCUGAUAGUGCUAAGGGGGCCUGGAAGUUUGGACUGGGCAGAGCUCAACACAGCGUGGCAAAGUGGCUGUGGCUAGACUGCCUCUCUGGAUUCCUCGUCACUCAGCAGGGCAUCUCUGAGAGAAAUGCC

Variants of: B1
Test: self-cleavage, relative activity (ratio to wild type); higher = more cleavage; in vitro, sequencing; the parent is a self-cleaving ribozyme

**Q.** With A59G A77U A140G as the variant, how does the self-cleavage read?
**A.** 0.07

**Q.** With A42C U46A U62C as the variant, how does the self-cleavage read?
**A.** 0.11

**Q.** With A6G A107U U130A A140G as the variant, how does the self-cleavage read?
**A.** 1.07

**Q.** For U100C U108G C116U U119G, which self-cleavage is on record?
**A.** 2.51

**Q.** Which self-cleavage does the source give for A30G A57G A121G here?
**A.** 2.04

**Q.** Which self-cleavage does the source give for A42G A65G C146U here?
**A.** 0.05

**Q.** Which self-cleavage does the source give for C103A U109C U132C here?
**A.** 1.47

**Q.** For U45A A65U U73C A78G, which self-cleavage is on record?
**A.** 0.33

**Q.** With U13G A42G A43G A77U A140G as the variant, how does the self-cleavage read?
**A.** 0.6

**Q.** Which self-cleavage does the source give for U5C G27A U108C here?
**A.** 0.77

**Q.** For A22G U73A G93A U102C, which self-cleavage is on record?
**A.** 0.07

**Q.** For C61U U96A C113U, which self-cleavage is on record?
**A.** 0.03

**Q.** Which self-cleavage does the source give for U39A U85C A94G here?
**A.** 0.17

**Q.** Which self-cleavage does the source give for U13A U20C G36C here?
**A.** 1.06

**Q.** With U1C U15A A117G as the variant, how does the self-cleavage read?
**A.** 0.96

**Q.** For U12C A42G U45A A79G U108G, which self-cleavage is on record?
**A.** 1.53

**Q.** With A31G U47A U100C U108A as the variant, how does the self-cleavage read?
**A.** 1.4

**Q.** For A78G A79G A129U, which self-cleavage is on record?
**A.** 0.63

**Q.** For G4U U5C G55A U119C, which self-cleavage is on record?
**A.** 0.42

**Q.** With A50U A64U U132C as the variant, how does the self-cleavage read?
**A.** 0.21

**Q.** For A79G U81A U87C U96A, which self-cleavage is on record?
**A.** 0.11

**Q.** For G4A U14C A43G U100A U109C, which self-cleavage is on record?
**A.** 0.92

**Q.** With A79G U100C A117G as the variant, how does the self-cleavage read?
**A.** 0

**Q.** For C19U A22G U62A A69U A79G, which self-cleavage is on record?
**A.** 0.09

**Q.** With U13C A43G A129G as the variant, how does the self-cleavage read?
**A.** 2.7

**Q.** With U20C A79G U130C A140G as the variant, how does the self-cleavage read?
**A.** 0.57

**Q.** For C38U U46C U119C, which self-cleavage is on record?
**A.** 1.28

**Q.** Which self-cleavage does the source give for U13C U29C U52A U85C here?
**A.** 0.6

**Q.** Which self-cleavage does the source give for U12C A43G C71G here?
**A.** 0.6

**Q.** With G35A U108C U130C as the variant, how does the self-cleavage read?
**A.** 1.13

**Q.** With G80A U115A C133A U134C as the variant, how does the self-cleavage read?
**A.** 1.57

**Q.** For G53A G60U U62C U87G, which self-cleavage is on record?
**A.** 0.01

**Q.** Which self-cleavage does the source give for U12G U45C U132C here?
**A.** 0.86

**Q.** With U109A G127U A142G as the variant, how does the self-cleavage read?
**A.** 1.4

**Q.** For A30G U52C A77U, which self-cleavage is on record?
**A.** 0.97

**Q.** With G35U A65G A124G as the variant, how does the self-cleavage read?
**A.** 0.03

**Q.** For U132C U134G A140G, which self-cleavage is on record?
**A.** 1.6

**Q.** Which self-cleavage does the source give for U12C A42U U102C here?
**A.** 1.52

**Q.** For A22G U85A A107G U119G, which self-cleavage is on record?
**A.** 0.22

**Q.** With U39C C56U U73C as the variant, how does the self-cleavage read?
**A.** 0.04

**Q.** With U9C A59G A78U U109A as the variant, how does the self-cleavage read?
**A.** 0.35

**Q.** With U26C A57G A78G U102A as the variant, how does the self-cleavage read?
**A.** 1.18

**Q.** For U9A A138G C145U, which self-cleavage is on record?
**A.** 0.98

**Q.** With U13C A31G A124G as the variant, how does the self-cleavage read?
**A.** 1.2

**Q.** For U15C A67G U104C U109A A141G, which self-cleavage is on record?
**A.** 0

**Q.** For C18U A78G U109A U112C, which self-cleavage is on record?
**A.** 0.72

**Q.** With A65G U112C U119G A121U as the variant, how does the self-cleavage read?
**A.** 0

**Q.** Which self-cleavage does the source give for G7U A64U A94G here?
**A.** 0.33

**Q.** Which self-cleavage does the source give for G36A C38U A78G G139A here?
**A.** 1.23

**Q.** For G10A A65G G127U, which self-cleavage is on record?
**A.** 0.06

**Q.** With U15C U104A C113U as the variant, how does the self-cleavage read?
**A.** 0.57

**Q.** Which self-cleavage does the source give for U9A A107G A117G here?
**A.** 1.67

**Q.** With U23C U29A C63U U87C U100A U132C as the variant, how does the self-cleavage read?
**A.** 0.17

**Q.** For U29A U45C A69U, which self-cleavage is on record?
**A.** 0.19

**Q.** Which self-cleavage does the source give for U46A C123U A136U here?
**A.** 0.97

**Q.** With G10A A31G U143A as the variant, how does the self-cleavage read?
**A.** 1.31

**Q.** With C18U A30G A59G as the variant, how does the self-cleavage read?
**A.** 0.28

**Q.** With A79G G86A A117G U130C as the variant, how does the self-cleavage read?
**A.** 0

**Q.** Which self-cleavage does the source give for U9A A64G A107U here?
**A.** 0.22

**Q.** With U14C U112C A141G as the variant, how does the self-cleavage read?
**A.** 1.27

**Q.** With U62C A69U U100C as the variant, how does the self-cleavage read?
**A.** 0.11

**Q.** With U45C U87C A136G as the variant, how does the self-cleavage read?
**A.** 0.19

**Q.** With U13A A22U A43G U62A as the variant, how does the self-cleavage read?
**A.** 0.06

**Q.** Which self-cleavage does the source give for U14C U81G U102C here?
**A.** 1.13

**Q.** With U5C U87G A92G U143C as the variant, how does the self-cleavage read?
**A.** 0

**Q.** Which self-cleavage does the source give for U20A A117G G126A A136G here?
**A.** 2.28

**Q.** Which self-cleavage does the source give for A57G A65U U73A C76U U85A U132C here?
**A.** 0.02

**Q.** Which self-cleavage does the source give for A24U U87G U96C U119C here?
**A.** 0

**Q.** With U47A A129G U130C as the variant, how does the self-cleavage read?
**A.** 1.69

**Q.** Which self-cleavage does the source give for G10A U14A A65G U100C A138G here?
**A.** 0

**Q.** With U14A A31U A124G as the variant, how does the self-cleavage read?
**A.** 1.08

**Q.** Which self-cleavage does the source give for U12C A78G G80A A92G U104A here?
**A.** 0.28

**Q.** For U9G U104A A129G, which self-cleavage is on record?
**A.** 0

**Q.** Which self-cleavage does the source give for U52A A121G A124U A141G here?
**A.** 2.32

**Q.** With A42U U87C U108G as the variant, how does the self-cleavage read?
**A.** 0

**Q.** For U81A A92U A138G, which self-cleavage is on record?
**A.** 1.15

**Q.** Which self-cleavage does the source give for G88C C128U U134C U143A here?
**A.** 0.05

**Q.** With G49A A50G G86A as the variant, how does the self-cleavage read?
**A.** 0.2

**Q.** With U9C U85G A142G as the variant, how does the self-cleavage read?
**A.** 0.14

**Q.** Which self-cleavage does the source give for A31G A69G A138G here?
**A.** 0.54

**Q.** Which self-cleavage does the source give for U12G A42G U134C here?
**A.** 0.71

**Q.** Which self-cleavage does the source give for G32A U102C A124G G126A here?
**A.** 1.59

**Q.** With U9C U29A A67U A107G as the variant, how does the self-cleavage read?
**A.** 0.43
